Assay results: PubChem BioAssay AID1508624 (National Center for Advancing Translational Sciences (NCATS), 2021)
Screen size: about 48,000 compounds; about 120 (0.25%) were called active. Roughly 4% stayed inconclusive and do not appear here. Calls come from the whole dose curve; as a rule, active = well fitted activation curve with a large enough effect; inconclusive = small, poorly fitted or top-dose-only effect, or another doubt; inactive = no such curve, though single readings can be large or run the other way. This is one part of the list.

experiment: Primary qHTS for Identification of Small Molecule Activators of Huntingtin-Antisense Promoter Activity; details: HEK293 HTT-AS promoter firefly luciferase reporter (activity 0% = vehicle and -100% = no light), 24 h; series mostly up to 57.5 µM; activity change, positive = activation: at the top concentration; note: nearly all actives have a fitted effect of over 55% in size
In short: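 Firefly luciferase signal from promoter-reporter HEK293 cells was scaled between vehicle (0%) and zero RLU (-100%). Compounds were tested at final concentrations of up to 57.5 uM over 24 h at 37 degrees C. PTC124 at 50 uM final served as control inhibitor.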

Activity change, positive = activation, inactive:
O=C(Cn1c(SCC(=O)Nc2ccc(F)cc2)nc2ccccc21)NCc1ccccc1Cl -11.3%
COc1ccc(-n2cc(C(=O)OCc3ccc(Cl)cc3)c3ccccc3c2=O)cc1 -3.25%
CN(C)c1ccc(C(CNS(=O)(=O)c2ccc(F)cc2)N2CCOCC2)cc1 (centres undefined) -22.9%
CCC(C(=O)Nc1ccc(C(=O)OC)cc1)n1nc(-c2ccc(C)c(C)c2)ccc1=O (centres undefined) -29%
COc1cc(OC)cc(C(=O)Nc2cc(-c3nc4cccnc4s3)ccc2C)c1 -10.9%
Cc1c(C(=O)OC2CCCCCC2)[nH]c2c1C(=O)CC(c1ccc(N(C)C)cc1)C2 (centres undefined) -10.1%
COc1ccc(NC(=O)C2CCN(S(=O)(=O)c3ccc4c(c3)CCCC(=O)N4)CC2)c(OC)c1 -23%
CCOc1ccc(Nc2sc(C(=O)c3cccc(OC)c3)c(N)c2S(=O)(=O)c2ccccc2)cc1 32.1%
Cn1c(=O)c(=O)n(C)c2cc(S(=O)(=O)N3CCCC3C(=O)Nc3ccc(F)cc3)ccc21 (centres undefined) -3.77%
CCOc1ccc(CNC(=O)Cn2ccc3cc(S(=O)(=O)N4CCCCC4)ccc32)cc1 -21.9%
Cc1ccc(NC(=O)CSc2ccc(-c3ccccn3)nn2)cc1F -16.4%
COc1ccc(S(=O)(=O)N(CC(=O)NCCSCc2ccccc2)c2ccc(C)cc2)cc1 -24.4%
CC(C)c1ccc(NC(=O)c2ccc3c(O)c(S(=O)(=O)c4ccccc4)c(=O)[nH]c3c2)cc1 0.134%
O=c1c2ccccc2n2c(-c3ccccc3F)nnc2n1CCc1ccccc1 0%
COc1cc(OC)c(N(C)C(=O)c2cc3c(=O)oc4ccccc4c3s2)cc1Cl -6.77%
Cc1ccc(-n2nc(C(=O)N(C)Cc3ccccc3)c3c4ccccc4n(C)c3c2=O)cc1 -13.3%
Cc1ccc(C(=O)N(c2ccc(C)cc2)S(=O)(=O)c2ccc(Cl)cc2)cc1 -19.1%
Cc1ccc(-n2c(=O)c3c(c4cc(C)ccc4n3C)n(Cc3ccc(F)cc3)c2=O)cc1 -2%
Cc1ccc(NC(=O)C(Cc2ccccc2)N2Cc3ccccc3C2=O)cc1Cl (centres undefined) -33.5%
O=C(CCC1N=C2c3ccccc3N=C(SCC(=O)Nc3ccc(F)cc3)N2C1=O)NCc1cccs1 (centres undefined) -40.6%
Cc1cccc(NC(=O)c2ccc(CNS(=O)(=O)c3ccc4c(c3)C(C)(C)C(=O)N4C)cc2)c1 -45.1%
CC(C)(C)OC(=O)Nc1ccc(-c2cc(C(=O)NCCCCCCC(=O)NO)no2)cc1 -35.5%
Cc1ccccc1C(=O)N(Cc1ccc(N(C)C)cc1)CC1CCCO1 (centres undefined) -9.51%
Cc1ccc(N2CCN(C(=O)NCc3noc4ccc(C)cc34)CC2)c(C)c1 -10.2%
COc1ccccc1NC(=O)CSC1=Nc2ccccc2C2=NC(CC(=O)NCc3ccc4c(c3)OCO4)C(=O)N12 (centres undefined) -24.2%
COc1ccccc1N=C1SC(C(=O)Nc2ccccc2OC)CC(=O)N1C (centres undefined) -23.8%
CCOC(=O)c1noc2ncnc(NCc3ccccc3OC)c12 -0.586%
O=C(NCCOCCn1c(=O)oc2ccccc21)Nc1cccc(Cl)c1 -7.06%
COC(=O)c1ccccc1NC(=O)C1CCCN(c2ncnc3onc(C)c23)C1 (centres undefined) -6.06%
Cc1ccc(CNC(=O)c2sc3nc4n(c(=O)c3c2C)CCCCC4)cc1 2.92%
CCCS(=O)(=O)N1CC(=O)N(c2ccc(C)cc2C)C(C)(C(=O)NC2CCCCCC2)C1 (centres undefined) -11.9%
O=C(Cn1c(=O)nc(-c2ccccc2)c2cc(Cl)ccc21)NCc1ccc(Cl)cc1 -25.6%
O=C(CCS(=O)(=O)c1cc2c3c(c1)CCN3C(=O)CC2)Nc1cccc(Br)c1 0.568%
CCOc1ccc(CCNC(=O)c2ccc3c(c2)N(Cc2ccccc2F)C(=O)c2ccccc2S3=O)cc1OCC (centres undefined) -17.5%
COc1ccc(CCNS(=O)(=O)c2cc(-c3onc(C)c3C)ccc2OC)cc1OC -10.7%
CCc1ccc(NC(=O)CSc2nc(=O)n(Cc3ccncc3)c3c2CCC3)cc1 -31.8%
Cc1ccc(C)c(Nc2nn3c(=O)c4cc5c(cc4nc3s2)OCO5)c1 14.3%
Cc1cc2c(cc1S(=O)(=O)CCC(=O)N1CCCCC1C)OCC(=O)N2 (centres undefined) -11.2%
O=C(COCc1cc(-c2ccc3c(c2)OCO3)on1)Nc1cc(C(F)(F)F)ccc1Cl -4%
CCN1CCN(CCCNC(=O)Cn2c(-c3cccs3)cc3cc(F)ccc32)CC1 -14.4%
CCCCN(C)CCNC(=O)CN1C(=O)CSc2ccc(S(=O)(=O)N3CCCCC3)cc21 -2.56%
CCOC(=O)N1CCc2c(sc(NCc3cccs3)c2C(=O)Nc2ccc(OC)cc2OC)C1 -90.6%
O=c1c(S(=O)(=O)c2ccccc2)cn(Cc2cccc(F)c2)c2cc(N3CCCC3)c(F)cc12 -8.52%
COc1ccccc1N1CCN(S(=O)(=O)CCNC(=O)Cc2ccc(Cl)cc2)CC1 -21%
CCCCNC(=O)CCn1c(=O)c2cccn2c2cccnc21 -1.79%
CCN(C(=O)c1c(C)oc2ncn(CC(C)C)c(=O)c12)c1cccc(Cl)c1 -7.11%
Cc1oc(-c2ccc(C(=O)NCc3ccccc3Cl)cc2)nc1CN1CCc2ccccc21 -34.4%
CCCn1c(CCC(=O)Nc2ccc(C)c(Cl)c2)nc2cccnc21 -19.2%
COc1ccc(C)cc1NC(=O)c1cc(S(=O)(=O)N2CCc3ccccc3C2)ccc1F -29.2%
CCC1=C(c2ccc(C)cc2)S(=O)(=O)N=C1N1CCC(C(=O)NCCc2ccc(Cl)cc2)CC1 -39.7%
Cc1ccc(CCNC(=O)c2c[nH]c3ccc(S(=O)(=O)Nc4cccc(C(F)(F)F)c4)cc3c2=O)cc1 -43.4%
O=C(CC1N=C2c3ccccc3N=C(SCc3cccc(Cl)c3)N2C1=O)NCCc1ccccc1 (centres undefined) -34.2%
Cc1ccc(S(=O)(=O)C(CNC(=O)C(=O)NCCc2ccc(Cl)cc2)c2cccs2)cc1 (centres undefined) -38.6%
Cc1ccc(NC(=O)c2oc3ccccc3c2NC(=O)C23CC4CC(CC(C4)C2)C3)cc1 -8.42%
CCOc1ccc(Nc2ncnc3scc(-c4ccc(OC)cc4)c23)cc1 -19.3%
Cc1ccc(C(=O)NCc2ccccc2)cc1NC(=O)c1nsc2ccccc12 17.8%
CCOC(=O)c1c(C)[nH]c(C)c1S(=O)(=O)N1CCC(C(=O)Nc2ccc(C)c(N(C)C)c2)CC1 -9.42%
Cn1cc(C(=O)NCCc2ccccc2)c(=O)c2cc(S(=O)(=O)N3CCCCC3)ccc21 -5.05%
CC(C)(C)OC(=O)N1CCC(c2c(C(=O)N3CCN(Cc4ccccc4)CC3)cnn2-c2ccc(Cl)cc2)CC1 -38.6%
CCc1ccc(N2C(=O)CN(S(=O)(=O)CC)CC2(C)C(=O)NC2CCCCC2)cc1 (centres undefined) -13.6%
Cc1cc(-c2ccc(C)c(S(=O)(=O)NCc3cccs3)c2)on1 -29.7%
Cc1ccc2oc(=O)n(Cc3ccccc3Cl)c2c1 -20.9%
Cc1ccc2oc(-c3cc(NC(=O)c4oc5ccccc5c4C)ccc3Cl)nc2c1 -12.6%
Clc1cccc(-n2nnnc2NCc2ccccc2Oc2ccccn2)c1Cl -22.1%
CCc1ccc(OCC(=O)Nc2cc(-c3nc4cc(C)ccc4o3)ccc2C)cc1 -3.07%
CN(Cc1ccc(F)cc1)S(=O)(=O)c1nnc(NC(=O)c2ccccc2)s1 -22%
CCCNC(=O)C1CCC(CNS(=O)(=O)c2ccc3c(c2)CC(C)N3C(C)=O)CC1 (centres undefined) -19.2%
COc1cc(Cl)c(C)cc1NC(=O)Cn1c(C)c2cnn(-c3ccccc3)c(=O)c2c1C -0.338%
CC(=O)Nc1c(C)nn(-c2ccccc2)c1N1CCC(C(=O)NCc2ccc(F)cc2)CC1 27.4%
C=C(C)Cn1c(SCC(=O)c2ccccc2)nc2sc3c(c2c1=O)CCCC3 -21.5%
O=C(Nc1cccc(C(F)(F)F)c1)C1CCN(S(=O)(=O)c2cccs2)CC1 -39.2%
CCOCCn1c(N2CCCN(C)CC2)nc2ccccc21 -9.93%
CCn1cc2nc(SCc3cccc(C(F)(F)F)c3)n(Cc3ccc(OC)cc3)c(=O)c2n1 -30.8%
O=C(CNC(=O)c1ccccc1)OCc1cc(=O)n2nc(C3CC3)sc2n1 -13.3%
O=c1c2oc3ccccc3c2n(Cc2ccc(Cl)cc2)c(=O)n1Cc1ccccc1 -15.1%
CCC1CCCCN1C(=O)CCS(=O)(=O)c1cc2c(cc1C)NC(=O)CO2 (centres undefined) -8.1%
CC=CCC=CCCC(=O)[C@H]1O[C@@H]1C(N)=O -3.91%
Cc1cc(C)cc(-n2c(SCC(=O)N3CCCCCC3)nc3c([nH]c4ccccc43)c2=O)c1 -5.55%
CC1(C)OC(=O)Nc2ccc(Br)cc21 -2.87%
CCS(=O)(=O)c1ncc(Cl)c(C(=O)NCc2ccccc2)n1 -94.4%
O=C(Nc1cc(F)ccc1F)c1ccc(CN2CC(=O)N3CCCCC3C2=O)cc1 (centres undefined) -7.93%
COc1ccc(-c2cc(=O)oc3c4c(ccc23)OCN(Cc2ccccc2)C4)cc1 -18.6%
CCc1c(C)sc2c1CCN(C(=O)Nc1cc(C)ccc1C)C2c1ccc(OC)cc1 (centres undefined) -0.871%
CC[C@H](C)C(=O)O[C@H]1C[C@H](O)C=C2C=C[C@H](C)[C@H](CC[C@@H](O)C[C@@H](O)CC(=O)O)[C@H]21 -0.879%
COc1ccc(OC)c(CCNC(=O)Cn2nc(C)n3c(cc4sccc43)c2=O)c1 -10%
COc1ccc(-n2ncc(C(=O)NCCN3CCOCC3)c2C2CCN(C(=O)OC(C)(C)C)CC2)cc1 -1.31%
Cc1nc(-c2cccc(S(=O)(=O)N3CCC(C(=O)NCc4ccccc4Cl)CC3)c2)no1 -29.4%
Cn1nc(-c2ccccc2F)c2cc(C(=O)NCc3cccc(Cl)c3)sc21 -32.5%
Cc1cc(C)cc(NC(=O)c2cc(S(=O)(=O)N3CCCC3)ccc2F)c1 -17.7%
Cc1cccc(CSc2nnc(CCCCCN)o2)c1 -82.6%
Cc1ccc(C)c(NC(=O)c2nnn(Cc3ccc(F)cc3Cl)c2N)c1 -23.8%
CCC1Oc2ccccc2N(CC(=O)NCCc2ccc(OC)c(OC)c2)C1=O (centres undefined) -19%
COc1cc(OC)c(NC(=O)N2CCc3cc(S(=O)(=O)N4CCC(C)CC4)ccc32)cc1Cl -5.32%
O=c1oc2ccc3ccccc3c2cc1-c1nnc(Nc2cccc(C(F)(F)F)c2)s1 -7.38%
